Results on 56 molecules are retold here after PubChem BioAssay AID463173 (ICCB-Longwood Screening Facility, Harvard Medical School, 2010).

Structures are written as SMILES. Out of some 52,000 compounds screened, about 1,700 (3.3%) were called active. Cut-off read from the data, not from the text of the source: active = survival mostly below about 52% (no sharp cut-off); inactive = mostly above about 56%. Some of the results follow.

This experiment deals with Wild type. Kind of experiment: growth inhibition of S. aureus wild type versus tarO mutant, primary screen, teichoic acid synthesis inhibitors, RN4220, OD600 (AID 463173). Conditions: S. aureus RN4220 wild type/DeltatarO growth, OD600, 18 h, hits give low values, screened at 18.75 µg/mL (by protocol).
For `Cc1cccc(NC(=O)CSc2nc3ccccc3c3nc(CCc4c(C)n[nH]c4C)nn23)c1`, the survival was inactive: 73%.
For `CC(C)(C)NC(=O)CN1CCC(n2nnc3cc(F)ccc32)CC1`, the survival is inactive: 96%.
Then `COc1ccccc1CCNC(=O)C(=O)NCC(c1ccco1)S(=O)(=O)c1ccccc1` (stereo unspecified), with inactive: 73%; and `COc1ccc(Nc2nc3ccccc3nc2NS(=O)(=O)c2ccc(Cl)cc2)cc1OC`, with inactive: 52%; and `COc1ccccc1-c1cc(C(=O)NCCc2ccccc2)no1`, with inactive: 72%.
As to `CC(C)c1cnc2c(c1SCC(=O)O)c(=O)n(C)c(=O)n2C`, the survival was inactive: 74%.
As for `CCOC(=O)c1cccc(NC(=O)CSc2nc3cc4ccccc4cc3[nH]2)c1`, the survival is inactive: 23%.
On to `O=S(=O)(Nc1cccc(F)c1)c1ccc2[nH]c3c(c2c1)CCCCC3`, for which the survival was inactive: 81%.
In the case of `CC(=O)Nc1ccc(NC(=O)c2cnn(-c3ccccc3)c2C2CCN(C(=O)OC(C)(C)C)CC2)cc1`, the survival is inactive: 84%.
Then `CCC(C(=O)NCc1cccc(Br)c1)n1nc(C)c2c(C)n(-c3ccccc3)nc2c1=O` (stereo unspecified), with inactive: 94%; and `CCC(=O)N1CCc2cc(CNC(=O)c3ccc(C#N)cc3)ccc21`, with inactive: 71%; and `CN(C(=O)CSc1nc(-c2ccco2)cc(C(F)(F)F)n1)c1ccccc1`, with inactive: 110%.
Then `O=C(CNC(=O)c1ccccc1F)OCc1cc(=O)n2nc(C3CC3)sc2n1`, with inactive: 136%; and `CCOc1ccccc1Nc1nnc(-c2cc3cc(Cl)ccc3oc2=O)s1`, with inactive: 99%.
On to `COc1cc(OC)cc(C(=O)Nc2ccc3c(c2)OCCO3)c1`, for which the survival is inactive: 78%.
For `COc1ccc(-c2nc3sc(CCNC(=O)C(=O)Nc4ccc(C)c(F)c4)c(C)n3n2)cc1`, the survival was inactive: 66%.
Then `CCCn1nc(NC(=O)c2cccc(Cl)c2)c2cc3cccc(C)c3nc21`, with inactive: 87%.
To `CCOc1ccc(NC(=O)CSC2=Nc3ccccc3C3=NC(Cc4ccccc4)C(=O)N23)cc1` (stereo unspecified) belongs inactive: 79%; to `CCOC(=O)c1c(C)[nH]c(C)c1S(=O)(=O)N1CCCC(C(=O)Nc2cccc(C)n2)C1` (stereo unspecified), inactive: 111%.
`COc1ccc(-c2csc(N)n2)cc1OC`: the survival was inactive: 112%.
As for `CCc1ccc(S(=O)(=O)c2cn(C)c3cc(F)c(F)cc3c2=O)cc1`, the survival was inactive: 134%.
Turning to `Cc1ccc(NC(=O)Cn2c(-c3nonc3N)nc3ccccc32)cc1C`, the survival was inactive: 149%.
On to `COc1ccccc1CN1CCN(C2CCN(C(=O)Nc3ccccc3)CC2)C(=O)C1=O`, for which the survival is inactive: 83%.
With `CC(C)(C)C(=O)Nc1cccc(C(=O)OCc2cc(=O)n3nc(C4CC4)sc3n2)c1`, the survival was inactive: 56%.
`Cc1ccccc1NC(=O)CCNC(=O)Cn1ccc2ccccc2c1=O`: the survival is inactive: 77%.
Then `CC(Nc1ccc(-c2nc(-c3ccco3)no2)cc1[N+](=O)[O-])c1ccccc1` (stereo unspecified), with inactive: 123%; and `CN1CCN(CCCNc2c(N)c(=O)oc3ccccc23)CC1`, with inactive: 106%; and `CCS(=O)(=O)c1oc(-c2ccc(F)cc2)nc1S(=O)(=O)c1ccc(Br)cc1`, with active: -1%.
With `CCOC(=O)c1ccc(NC(=O)CC2C(=O)N(c3ccc(C)cc3)C(=O)N2C2CCCC2)cc1` (stereo unspecified), the survival is inactive: 134%.
To `COc1cc(NC(=O)c2cc3ccc4cccnc4c3[nH]2)cc(OC)c1OC` belongs inactive: 73%; to `COc1ccccc1N1CCN(S(=O)(=O)CCNC(=O)C2CC(=O)N(c3ccccc3)C2)CC1` (stereo unspecified), inactive: 59%.
As to `CCS(=O)(=O)c1nc(S(=O)(=O)c2ccc(C)cc2)c(NCC(C)C)s1`, the survival was inactive: 76%.
In the case of `CCOC(=O)N1CCc2c(sc(NCc3sccc3C)c2C(=O)Nc2cc(Cl)ccc2OC)C1`, the survival is inactive: 80%.
On to `COC(=O)CN1C(=O)CSc2ccc(S(=O)(=O)Nc3c(C)cc(C)cc3C)cc21`, for which the survival was inactive: 78%.
Turning to `CCOC(=O)c1ccc(NC(=O)CSc2nc(-c3cccs3)cc(C(F)(F)F)c2C#N)cc1`, the survival is inactive: 85%.
For the molecule `Cc1ccc(NC(=O)N2CCN(Cc3nc4ccc(C)cc4o3)CC2)c(Cl)c1`, the survival was inactive: 66%.
To `CC(=O)C1=C(c2ccc(Cl)c(Cl)c2)N(C(C)=O)n2cnnc2S1` belongs inactive: 131%; to `O=C1CN(C(=O)COc2ccc(Cl)cc2)C(c2ccc(F)cc2)c2cc(Br)ccc2N1` (stereo unspecified), inactive: 52%.
For `COc1ccc(-c2nnc(SCC(=O)Nc3cccc(Cl)c3C)nc2-c2ccc(OC)cc2)cc1`, the survival is inactive: 72%.
To `COc1ccc(NC(=O)CCNS(=O)(=O)c2ccc3c(c2)CCN3C(=O)C2CC2)cc1Cl` belongs inactive: 76%.
To `Cc1cc(C)n(-c2nc(C)c(C)c(=O)n2CC(=O)Nc2ccc(Cl)c(Cl)c2)n1` belongs inactive: 84%; to `CC(=O)Nc1ccc(NC(=O)c2c(C)nn(-c3ccccc3)c2-n2cccc2)cc1`, inactive: 80%.
Regarding `Cc1ccc(CNc2ncnc3c2cnn3-c2ccc(C)cc2C)cc1`, the survival was inactive: 73%.
To `Cc1ccc(CNC(=O)c2ccc3c(c2)nc2n3CCCC2)cc1` belongs inactive: 91%.
As to `Cc1cc(C)c(NC(=O)Cn2nnc(C(=O)Nc3ccc(F)cc3F)c2N)c(C)c1`, the survival is inactive: 71%.
Turning to `COc1ccc(-c2cc(OC(=O)c3cccc(C)c3)c3c(C)oc(C)c3c(=O)c2)cc1`, the survival was inactive: 131%.
To `CCc1nn2c(=O)cc(COC(=O)C3CCCCC3)nc2s1` belongs inactive: 72%.
Regarding `COc1cccc(NC(=O)c2nnn(Cc3ccc(OC)c(Br)c3)c2N)c1`, the survival was inactive: 66%.
As for `CCOC(=O)c1cc(-c2ccccc2)n(CCCC(=O)Nc2ccc(C)cc2Cl)c1C`, the survival is inactive: 91%.
In the case of `CCn1cc(C(=O)NCc2ccccc2OC)c(=O)c2cc(S(=O)(=O)N3CCCCCC3)ccc21`, the survival was inactive: 74%.
Take `COC(=O)c1c(O)c2c([nH]c1=O)CCCC2`: the survival was inactive: 109%.
Consider `CCc1ccc(NC(=O)C2CCCN(S(=O)(=O)c3cccc4nonc34)C2)cc1` (stereo unspecified), for which the survival was inactive: 88%.
Consider `Cc1cc(C)nc(NC(N)=NC2CCCCC2)n1`, for which the survival is inactive: 104%.
For the molecule `COc1ccc(CNC(=O)C2CCN(S(=O)(=O)c3ccc4nc5c(c(C(=O)O)c4c3)CC(C)CC5)CC2)cc1` (stereo unspecified), the survival is inactive: 77%.
For the molecule `Cc1cc(C)c(NS(=O)(=O)c2cc(-c3cnc(C4CC4)o3)ccc2C)c(C)c1`, the survival was inactive: 140%.
Turning to `COc1cccc(NS(=O)(=O)c2cc3c4c(c2)C(C)C(=O)N4CCC3)c1` (stereo unspecified), the survival was inactive: 73%.
